This note sets out measurements from ChEMBL document CHEMBL4888484, “Replenishing the malaria drug discovery pipeline: Screening and hit evaluation of the MMV Hit Generation Library 1 (HGL1) against asexual blood stage Plasmodium falciparum ,using a nano luciferase reporter read-out” (2022).

The whole screen tested about 150,000 compounds, of which about 540 (0.36%) showed an effect of 50% or more. The list shows a part of the results.

Usually % Inhibition stands for the relative decrease from the control value, in per cent.

The test has as its system Plasmodium falciparum. Nature of the test: Primary screen in NF54 nanoGlo assay, in single point, at 2uM, 72h; a lower Z score goes with more inhibition. As to conditions: timepoint 72 hour. It counts as functional, Erythrocyte.
In the case of `Cc1cn(C(C)(C)C(=O)N2CCCNC(=O)[C@@H]2C)nc1C(F)(F)F`, the “% Inhibition” value is given as -7% and the Z score was 1.02.
Turning to `COC1(c2nc(-c3cccc(C)n3)no2)CCCCC1`, the “% Inhibition” value amounted to 2% and the Z score was -0.21.
In the case of `CCOCCOc1nc(-c2ccc(C)cc2)n(-c2ccc(NC(=O)Nc3ccccc3C)cc2)n1`, the “% Inhibition” value was 2% and the Z score is -0.29.
On the same counts, the results for `CC(C)CC(=O)N1CCc2ccc(OCc3nc(C(=O)N4CCN(C)CC4)co3)cc2[C@@H]1c1ccccc1` are -1% and 0.06.
For `CC(C)CC(=O)NC[C@@]12CCC=C1N(C)C(=O)CC2`, the “% Inhibition” value worked out at 6% and the Z score was -0.8.
In the case of `Cc1cccc(NC(=O)Nc2ccccc2-c2cc3ccccc3[nH]2)c1C`, the “% Inhibition” value worked out at 2% and the Z score is given as -0.31.
On the same counts, the results for `C[C@@H](Cn1cncn1)C(=O)NC1(c2cc(F)cc(F)c2)CC1` are -3% and 0.32.
On to `COc1cccc(NS(=O)(=O)c2cc(C(=O)N3CCCCC3)ccc2NCc2ccccc2Cl)c1`, for which the “% Inhibition” value was found to be 0% and the Z score came out at 0.05.
On the same counts, the results for `Cn1cc(Cl)cc1C(=O)N1CCC12CN(C(=O)OC(C)(C)C)C2` are -2% and 0.3.
Take `C=CCNC(=O)NCCCNc1ccccc1`: the “% Inhibition” value is reported as -4% and the Z score came to 0.56.
On the same counts, the results for `c1cnc(-c2noc(-c3ccccc3-c3ncc[nH]3)n2)nc1` are -30% and 3.24.
As for `CC(C)Oc1ccccc1NC(=O)N(C)C1C2CCOC2C1(C)C` (stereo not drawn), the “% Inhibition” value is on record as -8% and the Z score amounted to 1.01.
In the case of `COc1ccc(Br)c(CC(=O)N2CC3CCC2C3)c1` (stereo not drawn), the “% Inhibition” value is -6% and the Z score is reported as 0.66.
As to `CC[C@@H](C(=O)NCCN1CCOCC1)n1c(Cc2ccc(Cl)cc2Cl)nc2ccccc21`, the “% Inhibition” value is on record as 13% and the Z score is -2.48.
Consider `CC(C)c1cnc(COc2ccc(-n3cncn3)cc2)o1`, for which the “% Inhibition” value is listed as -6% and the Z score is 0.87.
For `CCN(Cc1cccc(Cl)c1)C[C@H](C)O`, the “% Inhibition” value is on record as -8% and the Z score amounted to 1.41.
As for `CCc1cc(N2CCC[C@H](N3CCCC3)C2)n2ncnc2n1`, the “% Inhibition” value turned out to be 0% and the Z score was 0.01.
`Cc1cc(C)c(C(=O)c2sc(Nc3ccc4c(c3)OCCO4)nc2N)cc1C`: the “% Inhibition” value is given as -21% and the Z score is 3.19.
On the same counts, the results for `COC(CS(=O)(=O)NC1CCCC12OCCO2)c1ccc(F)cc1` (stereo not drawn) are 3% and -0.66.
As for `O=S(=O)(Cc1ccccc1)N1CCCC[C@H]1c1nnc(-c2ccncc2)[nH]1`, the “% Inhibition” value is reported as 9% and the Z score is recorded as -1.67.
In the case of `CCN(C[C@H](C)C#N)C(=O)c1ncncc1Br`, the “% Inhibition” value was 3% and the Z score is -0.5.
`CCn1nc(C)cc1C(=O)N1CCC(n2cc(C3CC3)nn2)CC1`: the “% Inhibition” value came out at 1% and the Z score was -0.12.
For `CS(=O)(=O)CCCNc1c(F)cccc1Cl`, the “% Inhibition” value is reported as -1% and the Z score was 0.08.
Take `CN(C)CCNC(=O)C1=NOC2(CCN(C(=O)OC(C)(C)C)CC2)C1`: the “% Inhibition” value is on record as -11% and the Z score was found to be 1.94.
In the case of `COc1ccc2oc(-c3ccc(CNC(=O)c4ccccc4)cc3)nc2c1`, the “% Inhibition” value is recorded as 35% and the Z score is listed as -1.01.
In the case of `C[C@@H](C(=O)Nc1cnn(-c2ccc(Cl)cc2)c1)N1CCN(C)CC1`, the “% Inhibition” value is reported as -12% and the Z score came out at 0.98.
`O=C(Nc1ncccc1-c1ccccc1)[C@@H]1Cc2ccccc21`: the “% Inhibition” value is recorded as -2% and the Z score was found to be 0.29.
For the compound `C[C@]12CC[C@@H](O)C[C@@H]1CC[C@@H]1[C@@H]2CC[C@]2(C)C3CC[C@]12O[C@@H]1NC(=O)CC31` (stereo partly drawn), the “% Inhibition” value came out at 0% and the Z score is given as 0.02.
Turning to `c1ccc(N2CCN(Cc3cc(CC4(NCc5cccnc5)COC4)no3)CC2)cc1`, the “% Inhibition” value is listed as -4% and the Z score was determined as 0.74.
For `C#C[C@@H]1COCCN1C(=O)c1cc(Cl)c2c(c1)OCCCO2`, the “% Inhibition” value is -13% and the Z score was 1.91.
On to `CCOC1CC(N(C)C(=O)c2csc(CN)n2)C1(C)C` (stereo not drawn), for which the “% Inhibition” value is -3% and the Z score came to 0.5.
On to `O=C(NCCOc1cccc(Cl)c1)NC[C@H]1CCS(=O)(=O)C1`, for which the “% Inhibition” value is -18% and the Z score turned out to be 1.86.
On the same counts, the results for `Cc1ccc(OCc2nc(C(=O)NCc3ccccn3)cs2)c(C)c1` are -1% and 0.08.
Turning to `NC(N)=Nc1nc(-c2ccc(S(=O)(=O)N3CCCCCC3)cc2)cs1`, the “% Inhibition” value is listed as 7% and the Z score is listed as -0.67.
Take `COc1cccc(-c2nc3cc(F)ccc3cc2CN[C@H]2CCS(=O)(=O)C2)c1`: the “% Inhibition” value is -9% and the Z score was 1.34.
On the same counts, the results for `CO[C@H]1CCN(c2cc(N3CCC(C)(O)CC3)ncn2)C1` are -7% and 0.82.
On the same counts, the results for `COc1c(CNc2nncs2)c(C)nn1C` are 9% and -0.83.
Regarding `CCc1nocc1CN(C)C(=O)NC1CC2CC2C1` (stereo not drawn), the “% Inhibition” value is on record as -2% and the Z score is reported as 0.26.
Consider `Cc1cccc(C(=O)N(C)CCO)c1C`, for which the “% Inhibition” value is recorded as -4% and the Z score came out at 0.43.
For the compound `Cc1ccc(NC(=O)CC[C@@H]2CN(CC(C)C)CC[C@@H]2N2CCN(c3ccccc3F)CC2)cc1`, the “% Inhibition” value is -10% and the Z score turned out to be 1.22.
On to `CO[C@H]1[C@@H]2CC[C@H]1CN(Cc1cc(CN(C)C)cs1)C2`, for which the “% Inhibition” value was -2% and the Z score worked out at 0.23.
On the same counts, the results for `CN(C(=O)c1cnn(Cc2ccccc2)c1)[C@H]1CCS(=O)(=O)C1` are -2% and 0.22.
On the same counts, the results for `O=C(Cn1cc(S(=O)(=O)N2CCCCCC2)ccc1=O)Nc1ccc2c(c1)OCCO2` are 0% and -0.06.
In the case of `NC(=NCCc1cccc(Cl)c1)N1CCOCC1`, the “% Inhibition” value was 0% and the Z score was determined as 0.04.
On the same counts, the results for `O=C(CCN1CC[C@H](NC(=O)c2ccccc2)[C@@H](O)C1)NC1CCCCC1` are -1% and 0.21.
With `COc1cc(NC(=O)Cn2c(=O)n(-c3ccccc3)c(=O)c3c2cc(C)n3C)cc(OC)c1`, the “% Inhibition” value is reported as -14% and the Z score is given as 1.33.
With `CN(C(=O)C1CC1c1cc(F)ccc1F)C1CC[S+]([O-])CC1` (stereo not drawn), the “% Inhibition” value is listed as -6% and the Z score is 0.48.
Consider `N#Cc1ccc(NCCCC(=O)N2Cc3ccccc3C2)cn1`, for which the “% Inhibition” value is on record as -47% and the Z score came to 5.54.
On the same counts, the results for `O=C1CN(C(=O)CN2CCC[C@H](CN3CCOCC3)C2)c2ccccc2N1` are -5% and 0.68.
On the same counts, the results for `CC(C)(C)C(=O)NCCCn1ccnc1` are -8% and 1.6.
Consider `Cc1ccc(OCC(=O)N2CCCC[C@@H]2CCN2CCCC2)cc1C`, for which the “% Inhibition” value is reported as -15% and the Z score turned out to be 1.93.
On to `Cc1cc(N2C[C@H](C3CC3)[C@@H](N)C2)nc2cc(F)ccc12`, for which the “% Inhibition” value is reported as -8% and the Z score came to 1.25.
For the compound `Cc1nc(C)c(C)c(N2CCC[C@H](C(=O)Nc3ncccc3C)C2)n1`, the “% Inhibition” value is recorded as -22% and the Z score is recorded as 1.84.
On the same counts, the results for `O=C(NCC1CCN([C@H]2CCOC2)CC1)c1ccc2c(c1)OCO2` are -7% and 1.31.
As to `CCCN(Cc1ccc(C)o1)Cc1ccc(C(O)(c2ccc(OC)cc2)c2ccc(OC)cc2)o1`, the “% Inhibition” value is recorded as 5% and the Z score is -0.88.
On to `COc1ccc(Nc2nc3ccccc3s2)cc1S(=O)(=O)N1CCOCC1`, for which the “% Inhibition” value is given as -7% and the Z score was 0.9.
For `c1cncc(-c2cn(C3CCN(C4CCCCCC4)CC3)nn2)c1`, the “% Inhibition” value is -11% and the Z score turned out to be 1.6.
Regarding `CN(c1cccc(C(=O)Nc2ccccc2C(N)=O)c1)S(=O)(=O)c1ccccc1`, the “% Inhibition” value is recorded as -10% and the Z score was 1.79.
Take `CC(C)OC1CCC(NC2CCC3CN(Cc4ccccc4)CC32)CC1` (stereo not drawn): the “% Inhibition” value is 1% and the Z score is given as -0.09.
With `Cc1c(Cl)cccc1S(=O)(=O)N1CCC[C@H](Cc2nc(C3CC3)no2)C1`, the “% Inhibition” value is 15% and the Z score is -1.95.
With `C[C@@H](C(=O)N(C)Cc1ccon1)c1ccc(-c2ccccc2)c(F)c1`, the “% Inhibition” value came out at 0% and the Z score stood at 0.03.
For the compound `O=C(Cc1n[nH]c(=O)c2ccccc12)N1C[C@H]2Cc3cccc(=O)n3[C@@H](C2)C1`, the “% Inhibition” value was -18% and the Z score worked out at 2.35.
For the compound `OC1(O)C[C@@H](n2ccnc2)C2CO[C@@H]1O2`, the “% Inhibition” value is on record as -14% and the Z score is 1.84.
Regarding `COc1cccc(C2CC2C(=O)N(CCc2ccccc2)c2nc(C)cs2)c1` (stereo not drawn), the “% Inhibition” value is on record as -6% and the Z score is 0.9.
On the same counts, the results for `COC(CNC(=O)N1CCC[C@@H]1c1csc(C)n1)c1ccccc1` (stereo partly drawn) are -17% and 2.69.
On the same counts, the results for `CC(C)[C@@H](NC(=O)c1cc(Br)ccc1F)C(=O)O` are -7% and 1.17.
For the compound `O=C(NCCCN1CCCC1)c1cc2n(n1)CCCN(Cc1ccc(F)cc1)C2=O`, the “% Inhibition” value is -5% and the Z score stood at 0.49.
Take `COCCOCC(=O)N1CCCCC[C@@H]1Cc1cccs1`: the “% Inhibition” value is recorded as -1% and the Z score worked out at 0.12.
As to `CCOC(=O)C1C(N)CCN1C(=O)OC(C)(C)C` (stereo not drawn), the “% Inhibition” value is reported as 1% and the Z score is reported as -0.17.
In the case of `COCCNC(=O)C1CCN(c2cc(C)nc3cc(-c4ccc(Cl)cc4)nn23)CC1`, the “% Inhibition” value came out at 13% and the Z score is reported as -1.52.
Take `CCNc1nc(C(=O)NCC23CCCN2CCC3)cs1`: the “% Inhibition” value is recorded as -9% and the Z score is reported as 1.64.
Consider `Cc1[nH][nH]c(=O)c1CC(=O)N[C@H]1CC[C@@H]2CCC[C@@H]21`, for which the “% Inhibition” value amounted to 0% and the Z score was found to be 0.05.
On the same counts, the results for `C=CCN1CC[C@H](n2cnc(C#N)n2)C1=O` are -15% and 1.36.
For the compound `O=C(NCCc1cscn1)[C@H]1CCN(c2ccccc2Cl)C1`, the “% Inhibition” value was -6% and the Z score was found to be 1.04.
As to `O=C(O)C1CC(c2ccccc2)CN(C(=O)C2CCCC2)C1` (stereo not drawn), the “% Inhibition” value is -14% and the Z score is recorded as 1.23.
For `CO[C@H]1[C@@H]2CC[C@H]1CN(C(=O)CCCn1cncn1)C2`, the “% Inhibition” value worked out at 2% and the Z score is on record as -0.34.
On the same counts, the results for `Cc1nc(CC(=O)N(CC#Cc2ccccc2)C2CCCC2)cs1` are -15% and 1.54.
Take `Cc1cccc(C)c1C(=O)N(C)CC(C)(CO)CO`: the “% Inhibition” value is on record as -9% and the Z score is given as 1.04.
Turning to `O=C(CC1CCCC(CC(=O)c2ccccc2)N1)c1ccccc1` (stereo not drawn), the “% Inhibition” value was -46% and the Z score was 5.44.
As to `CCC[C@]1(CO)CCCN1C(=O)Nc1cnc(OC)cn1`, the “% Inhibition” value is 2% and the Z score is -0.22.
On to `Cc1ccc(-c2nc(-c3ccc(-c4ccccc4)cc3)c(-c3ccc(-c4ccccc4)cc3)[nH]2)cc1`, for which the “% Inhibition” value was -17% and the Z score came to 1.81.
As for `CCn1cc(C(=O)NS(=O)(=O)[C@@H](C)CC(C)C)c(C(C)C)n1`, the “% Inhibition” value came to 3% and the Z score was -0.32.
For the compound `CCn1c(-n2nc(C)nc2CCNC(C)=O)nc2ccccc21`, the “% Inhibition” value is -8% and the Z score was 0.9.
As for `N#Cc1c(-c2cccn2-c2ncccn2)cc(-c2ccc[nH]2)nc1N`, the “% Inhibition” value is -18% and the Z score turned out to be 2.76.
